From the supplement of paper PMC10681739
± gives the standard deviation of the averaged measurements. Over roughly 4,000 sequences, “arbitrary fluorescence units” has its median near 830; the highest 2% begin near 6,500. The list lacks most of the strong results.

biological target: RUNX1 (UniProt Q01196); assay: RUNX1 binding intensity (PBM fluorescence), RUNX1 alone (arbitrary fluorescence units); higher = stronger binding; conditions: RUNX1 concentration 2 nM; ETS1 concentration 0 nM
Method: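 gcPBM on 36-bp genomic-derived probes (partner site mutated) containing one RUNX1 site and no ETS1 site. Recombinant human RUNX1 (2 nM) was incubated alone or with ETS1 (25 nM) and detected by anti-RUNX1 antibody fluorescence. Values are medians over 4 replicate spots (not normalised). The probes sit in constant array flanks that are not printed.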
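Further: Full-length recombinant human RUNX1 bound to double-stranded DNA microarray spots, detected with an Alexa488-labelled secondary antibody after the anti-RUNX1 primary, read as scanned spot fluorescence.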

Sequence of UniProt Q01196 (Q01196 whole entry): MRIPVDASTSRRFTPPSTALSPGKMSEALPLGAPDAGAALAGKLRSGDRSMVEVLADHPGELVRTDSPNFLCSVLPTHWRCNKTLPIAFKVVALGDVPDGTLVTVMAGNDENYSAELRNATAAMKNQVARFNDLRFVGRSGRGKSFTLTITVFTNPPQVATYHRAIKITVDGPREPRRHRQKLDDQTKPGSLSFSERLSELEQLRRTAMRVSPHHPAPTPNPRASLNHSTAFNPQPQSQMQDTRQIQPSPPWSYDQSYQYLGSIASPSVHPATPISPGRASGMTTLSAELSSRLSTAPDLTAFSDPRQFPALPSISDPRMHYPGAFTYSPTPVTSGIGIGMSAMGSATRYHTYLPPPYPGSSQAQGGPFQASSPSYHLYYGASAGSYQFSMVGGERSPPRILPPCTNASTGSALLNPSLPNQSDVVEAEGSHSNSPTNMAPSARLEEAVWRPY

Point of comparison: CTACCTCCTGTGGTGACTCCACCCCTTCATGCGTCC, RUNX1 binding intensity 1200. Against it:
- TGTTAAAATGTGGGCAGCAAGAAAGGGAATAGTGTT — lower, 843
- ACCTGATGCCGGGGCACCGCCAGATGTGGCCACGAG — lower, 872
- AGCTCATTCTGAGGCTGCCCACACGGCTGTGGGTCC — lower, 857
- CAGGGGCTACCCGCGCAGGACGCTGTTTCGTGCCCC — lower, 735
- AGTCGCGGTTCCCACTCCACAACAGACTCGGAGGCT — lower, 984
- CTTCCTATGAAAACCACTTTCCTTCTTACCAAAACC — higher, 1990
- CTTCGAATTACCGCGAGAGAGTGCCGCGTAGGGGTC — lower, 814
- GCATCCCGCGCGCCGCAGACCCACTTTCGGAGACCT — lower, 1010
- GTAGCAACCGCAGGCTCACACACCGAAAGTGCTCGC — higher, 2730
- CTGGCCTGCGGCCGCCACCACCTCCTCCTCCCCATG — lower, 1150
- CTCTGGCGCGGGGCCGCAGCCTTTCAGCCACCAGGC — lower, 787
- GAGCCTGTTGCTTCAGGTTCAGAGCCCACATGCTGG — lower, 759
- GGCCAACCAAAAACCACTGGCAGGAGGTGGGGCAAC — lower, 852
- CTCTTACGGCCGCGAGGAGCGCGACTGCGGCCCCTG — lower, 833
- CTCCGCGGTCCCCTGCAGGCACCGAGGGCTGAACCA — lower, 800
- AAAGTCAAAACCACAGGAACAGAAAACTGTTCACTG — higher, 1730
- TAGGTCTGTGGGTGACGTCTGTTTACTGTGATTGAA — lower, 842
- GGGCGGGTAGGCGGTTTGTATCCAGGCTGTGAGGTG — lower, 828
- AGCTCCCAGACCACAGAGGTTTTGCTGCATGGAGGA — higher, 1250
- CTCCACCTGATGCAGCAATGAAGGCCGCAGGAATGG — lower, 757
- AGACGGGACCTGAAGCCGGGCCGCAGGCGGCCGGGC — lower, 688
- TGGAGGAGACCACACCTTCAAGCAACAACCTCTCCT — lower, 834
- GGGAAGGACTGCGGCACAAGGGACTTTCGGCTCTTG — lower, 705
- GGTTCCAGTGTCCCGTTTTGTTGATGTGGTAAATTT — lower, 1090
- GACTTCAGTGGTTAACTCTGGAGAGCAGGCAATGGG — lower, 894
- GTTGGCTGATTCCCGGTGCTGTGGGGGTTAAGTCTC — lower, 787
- CTTTAAGGAGGCGCAAAAGTTAACCGCGATGGGCAG — lower, 918
- TTCGGCCGCCGCCACCACACACATCCAGGTCCCCGC — lower, 1010
- TTCTATGCTGCCTTGCATGTCTTTAACCACACTGAG — lower, 1170
- GGGGCAGCTTACGGCAGGAGAGCCCGCATTCACGGC — higher, 1230
- TTTCCAGAGGCTGTAGCTTCTGCGGGAGAGCTTCAA — lower, 666
- GCCGGACCCTGCGGCCCCGGGACTGGACACCAGGCG — lower, 707
- TTGCCGTAACCACTTTATCCACCTCCTTTTTCACGA — higher, 2720
- AGCGCTCCCTTGCCGAGAGGCTGGAGCTGCGGCACC — lower, 685
- CTAACCCACACCAGCGCGTTGCCTCGGCAACATCGC — lower, 807
- TTCAGGTGACTCCCGGCCGGACCGCTGAGGACGCGG — lower, 654 ± 37
- ACACCCCAGCAAGTGGCAGAGACCACAACAAGTCAG — lower, 798
- GAAAGAGGTTTGAGGTTAGTGCTTCATGTCTCCACA — lower, 802
- CGGCTGGCAGGCAGTGGCCACTTGAACCGCAGATGC — lower, 926
- GCTGCGGCCAAGTGCAGGAACCTGACGAAGGAACTG — lower, 822
- CCTGGGTGTTTGAGGTTCGTTCATTCTGAGGCATAA — lower, 876
- GTATGGGAGGTGATCTGGCTGCAAACCGCAAGAGAG — higher, 8250
- TCTTGTTTCTTCAGTTACCGGAGCGCGGTCACGTGA — lower, 875
- TGCTTCCCTTCAGTGCCGACAGCGAAAACCGCTGCC — lower, 795
- AAGTGGAGAGCGGCAGTGAGCTGTGGGTGACTGCAG — lower, 649
- ACAATGAGTGGTTTTCTGAAGTGTCGGACCATCTGT — lower, 845
- GCAGGCGAAGGCCGAACTGGCGTGGTCAAACCAACC — lower, 780
- GCTGCGGCCCCCTCCCAAAACCCGGGGAGGTGGATT — lower, 779
- CAGGCCGCAGGGGAGAGGCACGTCCATGAAGATCTA — lower, 735
- GGCTCTGCCGACCGCTGACAGGACGACGCTGACGAC — lower, 772
- CAGCTGACATGAAGGAGAGAACCACAGACAGTGCGA — lower, 803
- CCCATCCATACGCCTCCAAAGTAACCTCAAGAATTT — higher, 1600
- CCCCTCGCCCCTCCGCATTGCGGGTTACTTCGGTTG — higher, 1650
- CGAGCCGCCTTGCTCCCCGGCCCACAGCCCAGCACT — lower, 889
- TTCAGCAAATGCAAACGGCTGCAGAGACCGCAGAGG — lower, 862
- CCTGCTTGCATGTGGTTCAGACATGCTGAGGTGGTA — lower, 764
- AATCCACCTCCCCGGGTTTTGGGAGGGGGCCGCAGC — lower, 839
- CTGCTTGTGGGTGGAGGGGAGCCTCCGAAGGAGGCC — lower, 897
- GGGCGCGGTTGCCGGGGAACGCGATTCCCGCCGCAC — lower, 747
- CCGAGGATTGTGGGAGATGTAGTTTTTCAGGCGCCT — lower, 826
- TTTTCTCTAAACCACATCAAAACCAGGCAACCAGTC — higher, 1760
- GATGGTGGTTTTGGCAGAGGCCACACCCTGTCTGTT — lower, 1000
- GTGGGACCTGATTCCTTAGCCCACAAGATGCAGAGC — lower, 845
- TGGTCCTTTGTGGGCGTGCTGTCAGAAAGATGACAG — lower, 737
- CTTGGCGGCAGTGGTGTGGGGGAGGTAGCCCGCAGT — lower, 752
- GCTCATTTGCTGGCCGCTCCTGGGCTTCGCGGTGAG — lower, 773
- GTGCGAGGGCGGTAAGTGGAAGGCAGCAGCGCATGG — lower, 730
- AGCCACACCCTGGACAAAAGCTGTGGTCTAGTAACC — lower, 955
- CTTCTGGCCGAAGCGGCACAAGCCGCAGTACAGCGC — lower, 705
- TGACTCCCGGTCCGTAGTGGGGCCTGCGGTGGGAGT — lower, 753
- ACAGCAAATGTTAGAGGTTGAGTTAGCGGTTATGAG — lower, 848
- CCCACCGCGCCCAGCCCTGCCACTCTCGGGAATGGG — lower, 941
- CGCCCACCACCTCCTGCTGGCGGTCGGCAAGCGTTG — lower, 897
- CAGGCCTGTGGTTTCTGTAACAGCAAGTGATTTAGA — higher, 3550
- CAAGCTCTGCGGCCTTCGTTCCTCTCTTCAGTTTGC — lower, 1110
- GTTTGGAGCAAGGACCCAGGGGCCCTTGTGGCTCAC — lower, 685 ± 32
- AGGTCTTGTGGCTCATTTTGTACCCACTTGCTGGGC — lower, 729
- GACCAGGCAACGGGGCGTGGCGGCCGCCGTGGTTAC — lower, 865
- GGAGGCGAAAGTGGAGGTTGTTGTGGCTCCGAGGGC — lower, 714
